Reference: the supplement of paper PMC7826260
This is one part of the list. The data describe in vitro nicking of single-stranded DNA by Rep domains for 1 h at 37 °C with 3 µM enzyme; only the middle of the 90-letter strands is printed. A value is the log2 ratio of uncut reads to the pool without enzyme; strong cutting gives strongly negative numbers. There is no active / inactive call. The scaling is to total reads; where an enzyme cuts many sequences, the uncut ones exceed 0.

What follows are sequences tested on T1, Rep nickase domain of tomato golden mosaic virus (assay: uncleaved DNA left, log2 of reads against the no-enzyme library (log2 ratio); higher = less cleavage (more negative = more Rep cleavage of the k-mer); sequences stand for … in CTCGTCCG…ACCGGAGA).
T1 sequence (Rep 1-124, printed without the tag): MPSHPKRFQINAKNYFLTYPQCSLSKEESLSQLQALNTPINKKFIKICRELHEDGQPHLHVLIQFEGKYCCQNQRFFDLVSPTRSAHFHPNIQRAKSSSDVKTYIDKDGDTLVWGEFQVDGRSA
Protocol: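 A pool of 90-nt single-stranded DNAs with seven random bases just before the constant AC of the nick site (name = the seven bases) was cut by 3 µM recombinant His6-SUMO-tagged Rep nickase domain (300 nM DNA, 50 mM HEPES pH 8.0, 50 mM NaCl, 1 mM MnCl2, 1 h, 37 °C, three replicates). Uncut DNA was amplified and sequenced.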

Sequence | uncleaved DNA left (log2)
GACTCTG | 0.0198
CGAGCGC | 0.0475
CGGCCTC | 0.0518
TACTGTT | -2.02
TGCGGCA | 0.0261
TGTCTGT | -0.103
GCGGTTT | 0.1
GCGAGCA | 0.133
TAAATAG | 0.0522
GTTGGTG | 0.0424
TTTATCA | 0.00222
AGGGGGT | 0.136
GTGCTCT | -0.00825
TCAAATG | 0.122
CTGACGC | -0.128
AAGGGTG | 0.0898
GATCCTC | -0.0189
ACGTGGT | -0.152
CGTGGCA | 0.0873
TCCGTCG | -0.259

Sequence | uncleaved DNA left (log2)
CCCTCAA | -0.0447
AATTTAA | 0.00536
ATCCGGA | -0.0462
CTCCCCC | -0.121
AGGTCCC | -0.028
TTGGAGC | 0.0129
AGAGACT | 0.0515
CACCATG | -0.0688
CGGCATA | 0.00653
ATACATA | 0.0775
GACGAGG | 0.138
GTCGAGC | 0.167
GTGTTGC | -0.0222
AGTGTCT | 0.092
AACGGCG | 0.0994
CGAACAA | 0.0447
CAGTGTC | 0.0375
TACAAGA | -0.00963
AGGCTAA | -0.0185
AAAAATA | 0.131
